Results as given in paper PMC12820563.
The other results are listed elsewhere or left out. The list includes weakly bound sequences.

These sequences were tested against T1, MBP-FoxP3dN (UniProt Q99JB6) (assay: PD-seq (MBP pull-down with sequencing)). Details: 20 mM Tris-HCl pH 7.5, 100 mM NaCl, 1.5 mM MgCl2, 0.4 uM protein, 0.1 uM dsDNA library, 30 min, room temperature, amylose pull-down; high values mean tight binding; double strand, one strand shown.
T1 sequence: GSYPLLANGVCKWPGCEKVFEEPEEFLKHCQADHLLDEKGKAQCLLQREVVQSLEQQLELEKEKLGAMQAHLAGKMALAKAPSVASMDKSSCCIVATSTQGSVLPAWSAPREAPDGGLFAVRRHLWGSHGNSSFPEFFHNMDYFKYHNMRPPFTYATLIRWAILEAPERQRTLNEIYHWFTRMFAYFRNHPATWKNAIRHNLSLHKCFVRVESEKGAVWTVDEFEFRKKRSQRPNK

| Sequence | binding signal (RPM ratio (pull-down/input)) |
| --- | --- |
| GATGATTGTTCTCCCAGCTGATGAATTTCAAGACTCGAGTAAACAAATTTTCCTAATCTTTCTGTTCAAGCGCCATCTAC | 0.224 |
| GATGATTGTTCTCCCAGCTGATGAATTTTTTAGCTCGAGTAAACAAATTTTCCTAATCTTTCTGTTCAAGCGCCATCTAC | 0.178 |
| GATGATTGTTCTCCCAGCTGATGAATTAGGGCGATCGAGTAAACAAATTTTCCTAATCTTTCTGTTCAAGCGCCATCTAC | 0.425 |
| GATGATTGTTCTCCCAGCTGATGAATTGAGGGTGTCGAGTAAACAAATTTTCCTAATCTTTCTGTTCAAGCGCCATCTAC | 0.748 |
| GATGATTGTTCTCCCAGCTGATGAATTTAAAATTTCGAGTAAACAAATTTTCCTAATCTTTCTGTTCAAGCGCCATCTAC | 0.21 |
| GATGATTGTTCTCCCAGCTGATGAATTTATACATTCGAGTAAACAAATTTTCCTAATCTTTCTGTTCAAGCGCCATCTAC | 1.09 |
| GATGATTGTTCTCCCAGCTGATGAATTAACAAGGTCGAGTAAACAAATTTTCCTAATCTTTCTGTTCAAGCGCCATCTAC | 0.261 |
| GATGATTGTTCTCCCAGCTGATGAATTGCCCGTGTCGAGTAAACAAATTTTCCTAATCTTTCTGTTCAAGCGCCATCTAC | 0.563 |
| GATGATTGTTCTCCCAGCTGATGAATTGCGATTCTCGAGTAAACAAATTTTCCTAATCTTTCTGTTCAAGCGCCATCTAC | 1.41 |
| GATGATTGTTCTCCCAGCTGATGAATTCTGGTGCTCGAGTAAACAAATTTTCCTAATCTTTCTGTTCAAGCGCCATCTAC | 0.534 |
| GATGATTGTTCTCCCAGCTGATGAATTTATACTTTCGAGTAAACAAATTTTCCTAATCTTTCTGTTCAAGCGCCATCTAC | 0.774 |
| GATGATTGTTCTCCCAGCTGATGAATTAAGGCCCTCGAGTAAACAAATTTTCCTAATCTTTCTGTTCAAGCGCCATCTAC | 0.605 |
| GATGATTGTTCTCCCAGCTGATGAATTGATTCTTTCGAGTAAACAAATTTTCCTAATCTTTCTGTTCAAGCGCCATCTAC | 0.421 |
| GATGATTGTTCTCCCAGCTGATGAATTCATTCAGTCGAGTAAACAAATTTTCCTAATCTTTCTGTTCAAGCGCCATCTAC | 0.257 |
| GATGATTGTTCTCCCAGCTGATGAATTGATGGTATCGAGTAAACAAATTTTCCTAATCTTTCTGTTCAAGCGCCATCTAC | 1.03 |
| GATGATTGTTCTCCCAGCTGATGAATTTTGCGCCTCGAGTAAACAAATTTTCCTAATCTTTCTGTTCAAGCGCCATCTAC | 2.67 |
| GATGATTGTTCTCCCAGCTGATGAATTAGTACGGTCGAGTAAACAAATTTTCCTAATCTTTCTGTTCAAGCGCCATCTAC | 0.434 |
| GATGATTGTTCTCCCAGCTGATGAATTTCGGGCTTCGAGTAAACAAATTTTCCTAATCTTTCTGTTCAAGCGCCATCTAC | 0.333 |
| GATGATTGTTCTCCCAGCTGATGAATTTATACCGTCGAGTAAACAAATTTTCCTAATCTTTCTGTTCAAGCGCCATCTAC | 0.687 |
| GATGATTGTTCTCCCAGCTGATGAATTGGAAAGGTCGAGTAAACAAATTTTCCTAATCTTTCTGTTCAAGCGCCATCTAC | 0.154 |
| GATGATTGTTCTCCCAGCTGATGAATTCGGGTGATCGAGTAAACAAATTTTCCTAATCTTTCTGTTCAAGCGCCATCTAC | 0.446 |

| Sequence | binding signal (RPM ratio (pull-down/input)) |
| --- | --- |
| GATGATTGTTCTCCCAGCTGATGAATTAGGAAGCTCGAGTAAACAAATTTTCCTAATCTTTCTGTTCAAGCGCCATCTAC | 0.237 |
| GATGATTGTTCTCCCAGCTGATGAATTAGACACTTCGAGTAAACAAATTTTCCTAATCTTTCTGTTCAAGCGCCATCTAC | 0.562 |
| GATGATTGTTCTCCCAGCTGATGAATTCTGCATTTCGAGTAAACAAATTTTCCTAATCTTTCTGTTCAAGCGCCATCTAC | 6.51 |
| GATGATTGTTCTCCCAGCTGATGAATTCGAGCAGTCGAGTAAACAAATTTTCCTAATCTTTCTGTTCAAGCGCCATCTAC | 0.326 |
| GATGATTGTTCTCCCAGCTGATGAATTTCGCTTGTCGAGTAAACAAATTTTCCTAATCTTTCTGTTCAAGCGCCATCTAC | 3.29 |
| GATGATTGTTCTCCCAGCTGATGAATTTCGCACATCGAGTAAACAAATTTTCCTAATCTTTCTGTTCAAGCGCCATCTAC | 1.14 |
| GATGATTGTTCTCCCAGCTGATGAATTTAGGCCATCGAGTAAACAAATTTTCCTAATCTTTCTGTTCAAGCGCCATCTAC | 1.45 |
| GATGATTGTTCTCCCAGCTGATGAATTGTCCTTCTCGAGTAAACAAATTTTCCTAATCTTTCTGTTCAAGCGCCATCTAC | 0.388 |
| GATGATTGTTCTCCCAGCTGATGAATTACAACAGTCGAGTAAACAAATTTTCCTAATCTTTCTGTTCAAGCGCCATCTAC | 1.1 |
| GATGATTGTTCTCCCAGCTGATGAATTAAAAACATCGAGTAAACAAATTTTCCTAATCTTTCTGTTCAAGCGCCATCTAC | 1.43 |
| GATGATTGTTCTCCCAGCTGATGAATTACTGTAATCGAGTAAACAAATTTTCCTAATCTTTCTGTTCAAGCGCCATCTAC | 0.742 |
| GATGATTGTTCTCCCAGCTGATGAATTCCCTAATTCGAGTAAACAAATTTTCCTAATCTTTCTGTTCAAGCGCCATCTAC | 0.276 |
| GATGATTGTTCTCCCAGCTGATGAATTGCTAATCTCGAGTAAACAAATTTTCCTAATCTTTCTGTTCAAGCGCCATCTAC | 0.638 |
| GATGATTGTTCTCCCAGCTGATGAATTCCACATATCGAGTAAACAAATTTTCCTAATCTTTCTGTTCAAGCGCCATCTAC | 0.449 |
| GATGATTGTTCTCCCAGCTGATGAATTGCCTAACTCGAGTAAACAAATTTTCCTAATCTTTCTGTTCAAGCGCCATCTAC | 0.514 |
| GATGATTGTTCTCCCAGCTGATGAATTCCGCTCTTCGAGTAAACAAATTTTCCTAATCTTTCTGTTCAAGCGCCATCTAC | 0.674 |
| GATGATTGTTCTCCCAGCTGATGAATTTCGATGCTCGAGTAAACAAATTTTCCTAATCTTTCTGTTCAAGCGCCATCTAC | 0.898 |
| GATGATTGTTCTCCCAGCTGATGAATTATGCGTATCGAGTAAACAAATTTTCCTAATCTTTCTGTTCAAGCGCCATCTAC | 2.74 |
| GATGATTGTTCTCCCAGCTGATGAATTGCACACATCGAGTAAACAAATTTTCCTAATCTTTCTGTTCAAGCGCCATCTAC | 1.05 |
| GATGATTGTTCTCCCAGCTGATGAATTAGCTACGTCGAGTAAACAAATTTTCCTAATCTTTCTGTTCAAGCGCCATCTAC | 0.458 |
| GATGATTGTTCTCCCAGCTGATGAATTACTGCTCTCGAGTAAACAAATTTTCCTAATCTTTCTGTTCAAGCGCCATCTAC | 0.405 |

| Sequence | binding signal (RPM ratio (pull-down/input)) |
| --- | --- |
| GATGATTGTTCTCCCAGCTGATGAATTACCGATGTCGAGTAAACAAATTTTCCTAATCTTTCTGTTCAAGCGCCATCTAC | 0.442 |
| GATGATTGTTCTCCCAGCTGATGAATTCTATGCCTCGAGTAAACAAATTTTCCTAATCTTTCTGTTCAAGCGCCATCTAC | 0.668 |
| GATGATTGTTCTCCCAGCTGATGAATTGTGGGTCTCGAGTAAACAAATTTTCCTAATCTTTCTGTTCAAGCGCCATCTAC | 1.25 |
| GATGATTGTTCTCCCAGCTGATGAATTGCTAGAGTCGAGTAAACAAATTTTCCTAATCTTTCTGTTCAAGCGCCATCTAC | 0.44 |
| GATGATTGTTCTCCCAGCTGATGAATTCCTGTTGTCGAGTAAACAAATTTTCCTAATCTTTCTGTTCAAGCGCCATCTAC | 1.27 |
| GATGATTGTTCTCCCAGCTGATGAATTTGAATGTTCGAGTAAACAAATTTTCCTAATCTTTCTGTTCAAGCGCCATCTAC | 1.46 |
| GATGATTGTTCTCCCAGCTGATGAATTCGCCGTATCGAGTAAACAAATTTTCCTAATCTTTCTGTTCAAGCGCCATCTAC | 0.592 |
| GATGATTGTTCTCCCAGCTGATGAATTTGTCCCATCGAGTAAACAAATTTTCCTAATCTTTCTGTTCAAGCGCCATCTAC | 2.38 |
| GATGATTGTTCTCCCAGCTGATGAATTAATCACGTCGAGTAAACAAATTTTCCTAATCTTTCTGTTCAAGCGCCATCTAC | 0.577 |
| GATGATTGTTCTCCCAGCTGATGAATTGTAATATTCGAGTAAACAAATTTTCCTAATCTTTCTGTTCAAGCGCCATCTAC | 1.5 |
| GATGATTGTTCTCCCAGCTGATGAATTCCTTCTATCGAGTAAACAAATTTTCCTAATCTTTCTGTTCAAGCGCCATCTAC | 0.281 |
| GATGATTGTTCTCCCAGCTGATGAATTGTTCTAGTCGAGTAAACAAATTTTCCTAATCTTTCTGTTCAAGCGCCATCTAC | 0.321 |
| GATGATTGTTCTCCCAGCTGATGAATTGTGCAGGTCGAGTAAACAAATTTTCCTAATCTTTCTGTTCAAGCGCCATCTAC | 1.71 |
| GATGATTGTTCTCCCAGCTGATGAATTCAAATCTTCGAGTAAACAAATTTTCCTAATCTTTCTGTTCAAGCGCCATCTAC | 0.237 |
| GATGATTGTTCTCCCAGCTGATGAATTGCTATGATCGAGTAAACAAATTTTCCTAATCTTTCTGTTCAAGCGCCATCTAC | 0.879 |
| GATGATTGTTCTCCCAGCTGATGAATTAATTCTCTCGAGTAAACAAATTTTCCTAATCTTTCTGTTCAAGCGCCATCTAC | 0.307 |
| GATGATTGTTCTCCCAGCTGATGAATTTGTGATCTCGAGTAAACAAATTTTCCTAATCTTTCTGTTCAAGCGCCATCTAC | 4.83 |
| GATGATTGTTCTCCCAGCTGATGAATTCTGCACGTCGAGTAAACAAATTTTCCTAATCTTTCTGTTCAAGCGCCATCTAC | 2.7 |
| GATGATTGTTCTCCCAGCTGATGAATTCAAAATGTCGAGTAAACAAATTTTCCTAATCTTTCTGTTCAAGCGCCATCTAC | 0.316 |
| GATGATTGTTCTCCCAGCTGATGAATTCATTCACTCGAGTAAACAAATTTTCCTAATCTTTCTGTTCAAGCGCCATCTAC | 0.354 |
| GATGATTGTTCTCCCAGCTGATGAATTTGATGGGTCGAGTAAACAAATTTTCCTAATCTTTCTGTTCAAGCGCCATCTAC | 3.22 |
